Consider 57 compounds from paper PMC4336329 (PLoS ONE, 2015).

SMILES strings stand for the structures. Out of some 310,000 compounds screened, about 2,200 (0.71%) showed an effect of 50% or more. Effects have a minus sign here. This is one part of the list.

The target in the assay is human ether-à-go-go-related gene (hERG) potassium channel (human, UniProt Q12809). Kind of assay: primary screen, population patch clamp on CHO cells stably expressing hERG.
Chain of human ether-à-go-go-related gene (hERG) potassium channel (Q12809 whole entry, looked up): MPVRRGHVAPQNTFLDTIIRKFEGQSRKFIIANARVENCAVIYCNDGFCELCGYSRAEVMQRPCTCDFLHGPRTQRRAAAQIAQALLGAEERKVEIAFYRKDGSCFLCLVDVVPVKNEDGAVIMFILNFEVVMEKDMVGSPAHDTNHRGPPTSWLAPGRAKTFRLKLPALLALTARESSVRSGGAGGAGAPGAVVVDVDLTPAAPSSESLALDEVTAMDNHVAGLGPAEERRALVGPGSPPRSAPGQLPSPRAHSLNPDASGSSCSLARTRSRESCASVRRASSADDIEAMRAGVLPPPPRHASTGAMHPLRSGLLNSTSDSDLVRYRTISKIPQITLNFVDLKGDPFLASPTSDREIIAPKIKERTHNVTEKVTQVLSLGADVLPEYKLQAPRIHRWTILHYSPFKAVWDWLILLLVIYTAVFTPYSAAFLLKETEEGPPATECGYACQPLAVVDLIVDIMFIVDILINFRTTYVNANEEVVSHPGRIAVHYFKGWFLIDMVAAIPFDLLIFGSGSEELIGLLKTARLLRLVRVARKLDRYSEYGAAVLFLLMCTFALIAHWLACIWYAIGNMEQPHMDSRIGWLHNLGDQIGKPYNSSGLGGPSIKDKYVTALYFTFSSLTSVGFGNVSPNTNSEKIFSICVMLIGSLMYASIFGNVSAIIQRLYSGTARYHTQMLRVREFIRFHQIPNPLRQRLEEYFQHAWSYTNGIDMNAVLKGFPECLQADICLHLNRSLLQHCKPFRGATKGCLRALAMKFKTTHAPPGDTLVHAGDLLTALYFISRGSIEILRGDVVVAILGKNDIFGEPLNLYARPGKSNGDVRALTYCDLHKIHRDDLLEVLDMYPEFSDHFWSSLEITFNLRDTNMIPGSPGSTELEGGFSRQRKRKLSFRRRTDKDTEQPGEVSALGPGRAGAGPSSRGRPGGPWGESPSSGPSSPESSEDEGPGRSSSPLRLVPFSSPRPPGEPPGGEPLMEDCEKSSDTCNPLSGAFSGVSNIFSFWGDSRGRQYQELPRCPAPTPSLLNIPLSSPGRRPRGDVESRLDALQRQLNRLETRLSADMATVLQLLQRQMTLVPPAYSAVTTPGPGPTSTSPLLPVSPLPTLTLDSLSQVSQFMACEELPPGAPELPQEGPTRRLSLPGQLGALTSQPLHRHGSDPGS
For the compound `COc1ccc(/C=C(\C)c2nc(C)c(-c3ccccc3)c(=O)[nH]2)cc1`, the “hERG current change (%, negative = inhibition) at 1uM” value is on record as 6.64%. For `COC(=O)c1ccccc1NC(=O)CSc1nnc(-c2ccoc2C)n1C`, the “hERG current change (%, negative = inhibition) at 1uM” value was -1.98%.

Take `C=CCNC(=O)c1c(CS(=O)(=O)c2ccccc2)noc1C(=O)NCc1ccccc1`: the “hERG current change (%, negative = inhibition) at 1uM” value is given as -4.26%. For `O=C(CSc1nc(=O)n2ccccc2n1)Nc1ccc2c(c1)OCO2` the value was 7.63%; for `CCOc1ccc(NS(=O)(=O)c2ccc(OC)c(NC(=O)c3ccc4c(c3)OCCO4)c2)cc1`, 7.12%; for `CCCC12CN3CCN(CC(C3)/C1=N\NC(=O)Nc1ccccc1)C2`, 11.7%. For the compound `O=S(=O)(/C=C/c1ccccc1)NC1CCCCCCC1`, the “hERG current change (%, negative = inhibition) at 1uM” value was found to be 0.355%. Regarding `Cc1nonc1-c1csc(N)n1`, the “hERG current change (%, negative = inhibition) at 1uM” value stood at 6.55%. For the compound `CN1CCN(c2ccc(NC(=O)c3sc4ccccc4c3Cl)cc2)CC1`, the “hERG current change (%, negative = inhibition) at 1uM” value is listed as 7.55%.

Turning to `O=C(CSc1nc2ccccc2c(=O)n1-c1ccccc1)NCc1ccco1`, the “hERG current change (%, negative = inhibition) at 1uM” value worked out at 5.54%. For `COc1ccc(NC(=O)c2cccc(Cn3cc(Br)cn3)c2)cn1` the value was 6.09%. On to `Nc1ncnc2nc(SCc3ccc(Cl)cc3Cl)[nH]c12`, for which the “hERG current change (%, negative = inhibition) at 1uM” value stood at 14%.

With `COc1ccc(-n2nc(C(=O)NCC(=O)NCC3CCCO3)c3ccccc3c2=O)cc1Cl` (stereo not drawn), the “hERG current change (%, negative = inhibition) at 1uM” value came to 9.44%. On to `O=C(COC(=O)c1ccccn1)NCc1ccccc1Cl`, for which the “hERG current change (%, negative = inhibition) at 1uM” value is recorded as 2.21%. Turning to `Cc1ccc(NC(=O)CN2C(=O)NC3(CCCCCCC3)C2=O)cc1C`, the “hERG current change (%, negative = inhibition) at 1uM” value was determined as 10.9%. Turning to `CC(C)(C)c1ccc(Cc2n[nH]c(=S)[nH]c2=O)cc1`, the “hERG current change (%, negative = inhibition) at 1uM” value came out at 13.1%. Consider `Cc1nc(C)c(-c2ccc(SCC(=O)Nc3ccccc3)nn2)s1`, for which the “hERG current change (%, negative = inhibition) at 1uM” value was found to be 12.4%. For `CCC1Oc2ccc(C)cc2N(CC(=O)N2CCCC2)C1=O` (stereo not drawn) the value was 0.676%; for `COc1cc(NC(=O)COC(=O)c2cnc(C)cn2)c(C)cc1[N+](=O)[O-]`, 12.2%; for `CCC1CCCCN1CCCNC(=O)Cn1nc(-c2ccccc2)ccc1=O` (stereo not drawn), 3.42%. Consider `COc1ccc(OC)c(CCNC(=O)CS(=O)(=O)Cc2nc(-c3ccccc3Cl)oc2C)c1`, for which the “hERG current change (%, negative = inhibition) at 1uM” value is on record as 21.9%.

In the case of `CSCCC(NC(=O)C1CCC(C)CC1)C(=O)O` (stereo not drawn), the “hERG current change (%, negative = inhibition) at 1uM” value is 14.6%. As to `COc1ccc(NS(=O)(=O)c2ccc(NC(C)=O)cc2)cc1OC`, the “hERG current change (%, negative = inhibition) at 1uM” value is reported as 0.751%.

Turning to `COC(=O)c1ccc(C2NC(C(=O)O)CS2)cc1` (stereo not drawn), the “hERG current change (%, negative = inhibition) at 1uM” value is listed as 15.7%.

For the compound `Cc1cc(S(=O)(=O)NCC(C)C)ccc1OCC(=O)N1CCOCC1`, the “hERG current change (%, negative = inhibition) at 1uM” value is reported as 4.74%. As for `COc1ccc(N2C(=O)CC(Sc3nc(C)cc(C)c3C#N)C2=O)cc1` (stereo not drawn), the “hERG current change (%, negative = inhibition) at 1uM” value is listed as 13.4%. With `COc1ccc(OCCOC(=O)c2ccc(F)c(S(=O)(=O)N3CCOCC3)c2)cc1`, the “hERG current change (%, negative = inhibition) at 1uM” value is reported as 12.2%. On to `COc1ccc(C(=O)NC(=S)Nc2nc(C)cc(C)n2)cc1Br`, for which the “hERG current change (%, negative = inhibition) at 1uM” value was found to be 14.4%.

For `CC(Sc1ccccc1)C(=O)N(CCC#N)Cc1cccnc1` (stereo not drawn), the “hERG current change (%, negative = inhibition) at 1uM” value was determined as 11.6%. On to `Cc1noc(C)c1CSc1nc2ccccc2n1C`, for which the “hERG current change (%, negative = inhibition) at 1uM” value amounted to 15%. As to `COc1ccc(C)cc1NS(=O)(=O)c1ccc2c(c1)N(C(C)=O)CCO2`, the “hERG current change (%, negative = inhibition) at 1uM” value amounted to 5.82%. As for `COC(=O)c1ccc(NC(=O)C(=O)NCC2CCCO2)cc1` (stereo not drawn), the “hERG current change (%, negative = inhibition) at 1uM” value is recorded as 9.42%. As to `CC1CCC(NC(=O)C2CCC(CNS(=O)(=O)c3cccc4cccnc34)CC2)CC1` (stereo not drawn), the “hERG current change (%, negative = inhibition) at 1uM” value is given as 19.1%. For the compound `COc1ccccc1CNS(=O)(=O)N(C)C`, the “hERG current change (%, negative = inhibition) at 1uM” value was 10.6%. Regarding `Cn1c(NCCO)nc2c1c(=O)n(Cc1cccc(Cl)c1)c(=O)n2C`, the “hERG current change (%, negative = inhibition) at 1uM” value is 13.4%. In the case of `Cn1c(=O)c2c(ncn2CCN(CCO)Cc2ccccc2)n(C)c1=O`, the “hERG current change (%, negative = inhibition) at 1uM” value is reported as -0.88%. Then `CC(C)OC(=O)C1C(=O)CC(C)(O)C(C(=O)OC(C)C)C1c1ccccc1` (stereo not drawn), with 11.7%; and `COc1ccc(Cl)cc1NC(=O)Nc1ccc(Br)cn1`, with 13.5%; and `Cc1ccccc1C(=O)NC(CC(C)C)C(=O)OCc1cc(=O)n2cc(Br)ccc2n1` (stereo not drawn), with -4.24%. For `NP(=O)(OCCCc1ccccc1)Oc1ccc(Cl)cc1` (stereo not drawn), the “hERG current change (%, negative = inhibition) at 1uM” value was found to be 6.56%. For `CCN(CC)S(=O)(=O)c1ccc(Oc2ccccc2)c(N)c1` the value was 3.88%; for `O=C(Oc1ccc2c(=O)c(Oc3ccc4ccccc4c3)coc2c1)c1cccnc1`, 3.72%. Consider `CC(NS(=O)(=O)c1ccc(F)cc1)C(c1cccs1)N1CCN(C)CC1` (stereo not drawn), for which the “hERG current change (%, negative = inhibition) at 1uM” value was 8.12%. Then `CCn1c(COc2ccccc2)nnc1SCc1ccc(C#N)cc1`, with -17.1%; and `Cc1nc2ccc(S(=O)(=O)N(C)CC(=O)N3CCc4ccccc43)cc2s1`, with 6.74%; and `COc1ccc(NC(=O)c2cc(-c3ccccc3)oc2C)cc1`, with 9.2%. On to `CCOc1ccc2nc(NC(=O)C3(C)CC3(Br)Br)sc2c1` (stereo not drawn), for which the “hERG current change (%, negative = inhibition) at 1uM” value stood at 9.16%. Turning to `O=C(CC1S/C(=N/N=C/c2cccnc2)NC1=O)Nc1ccccc1` (stereo not drawn), the “hERG current change (%, negative = inhibition) at 1uM” value turned out to be 9.29%.

For `Cn1c(NCC(O)c2ccccc2)nc2c1c(=O)n(Cc1ccc(Cl)cc1)c(=O)n2C` (stereo not drawn), the “hERG current change (%, negative = inhibition) at 1uM” value is 3.2%.

For the compound `COc1cc(-c2nc(S(=O)(=O)c3ccc(C)cc3)c(N(C)C)o2)cc(OC)c1OC`, the “hERG current change (%, negative = inhibition) at 1uM” value was determined as 1.16%. As for `CC1CCCCN1CCCNC(=O)CCCN1C(=O)c2cccnc2Sc2ccccc21` (stereo not drawn), the “hERG current change (%, negative = inhibition) at 1uM” value was found to be 13.2%. Turning to `COc1cc2c(cc1OC)C(c1ccccc1)N(C(=O)c1ccccc1F)CC2` (stereo not drawn), the “hERG current change (%, negative = inhibition) at 1uM” value is given as -8.07%. Turning to `CN1CCN(C(=O)c2c(O)c3cccc4c3n(c2=O)CCC4)CC1.Cl`, the “hERG current change (%, negative = inhibition) at 1uM” value stood at 9.69%. In the case of `O=C(O)CCn1c(O)c(C=C2N=c3ccccc3=N2)sc1=S`, the “hERG current change (%, negative = inhibition) at 1uM” value is listed as 8.95%. With `CC1Sc2ccc(S(=O)(=O)N3CCC(C(=O)NCCc4ccccc4)CC3)cc2NC1=O` (stereo not drawn), the “hERG current change (%, negative = inhibition) at 1uM” value came to 9.83%.

As for `CCCCCCOc1ccc(N2C(=O)CC(NCc3ccc(S(N)(=O)=O)cc3)C2=O)cc1` (stereo not drawn), the “hERG current change (%, negative = inhibition) at 1uM” value worked out at 15.8%. `CCn1c(-c2ccc[nH]c2=O)nc2ccccc21`: the “hERG current change (%, negative = inhibition) at 1uM” value stood at 6.24%.
